In all, about 33,000 sequences were measured (“E-score (-0.5 to 0.5)”: median about -0.01, highest 2% from about 0.26 on). The list shows a part of the results.
These sequences were tested against Ste12 (UniProt P13574) (assay: PBM E-score (8-mer binding enrichment) (E-score (-0.5 to 0.5)); higher = stronger / more preferred TF binding; most listed sequences are background and not binding sites). Settings: protein concentration: 200 nM; construct: GST-DNA-binding domain.
In short: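 Detection of bound protein used fluorescent anti-GST, with scans normalised by masliner. The proteins were GST-tagged yeast transcription factors applied at about 100-200 nM to universal all-10-mer Agilent arrays made double-stranded by primer extension. Each ungapped eight-base word, pooled with its reverse complement, was scored with an E-score from the Universal PBM Analysis Suite.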

| Sequence | PBM E-score |
| --- | --- |
| GTCGTCTA | -0.0926 |
| GCAACTAA | -0.0101 |
| CGTTTCGC | 0.296 |
| TCCCTCGA | 0.0339 |
| CGAACGCG | 0.0317 |
| GTGCGCAA | -0.0274 |
| ACCTTTGG | -0.223 |
| GAGTTAGC | -0.0742 |
| AGGGGACT | -0.0958 |
| CCTTCATA | -0.0144 |
| GCCCCGCC | 0.33 |
| ACTAACGA | -0.0183 |
| CGTCGTGA | -0.1 |
| CCGACGTA | -0.124 |
| GTACTAAA | 0.0446 |
| CCTCCTAC | 0.0107 |
| GTCTCCAA | 0.0569 |
| CGATAGAC | -0.0818 |
| ATTTTTGG | 0.183 |
| ACTAGTGC | -0.182 |
| CACACCCA | 0.0803 |
| ACACTAAC | -0.0194 |
| GGAGGGAC | -0.00419 |
| CAGGACTG | -0.0991 |
| CTTACTAC | 0.0578 |

| Sequence | PBM E-score |
| --- | --- |
| ATCGCCCC | -0.0404 |
| CTTACAGC | 0.0013 |
| CCACTCAG | -0.0273 |
| CAACGGAG | -0.152 |
| CCCCGGAC | 0.0497 |
| CACCCGGA | 0.186 |
| CGTAGACC | -0.15 |
| TAAAGGAA | 0.0666 |
| CGCGTACA | 0.00106 |
| AGTGCGTC | -0.322 |
| GACCATAA | 0.107 |
| CTATGGTA | -0.121 |
| ACAATATC | 0.116 |
| CGGTCGGA | -0.00578 |
| ACAGTTAC | 0.163 |
| AACCACGC | -0.143 |
| AACCAAGC | 0.0495 |
| ATGCTGTC | -0.216 |
| ATGCGTGA | -0.0382 |
| GCTCACGA | -0.151 |
| GATTGTCC | -0.095 |
| CCGCCGGA | 0.105 |
| AGTATAGC | -0.022 |
| GATAATCC | -0.129 |
| AGAGCTGC | -0.363 |

| Sequence | PBM E-score |
| --- | --- |
| CTATTGAC | -0.0696 |
| CGTAAGAA | 0.0645 |
| AAGGTAGC | -0.237 |
| CCTGCACG | -0.0209 |
| ATGCTACA | -0.0613 |
| ACAGGTGG | -0.0436 |
| CGCCCACA | 0.197 |
| ATAAGCCA | 0.148 |
| ATAGGGCG | -0.087 |
| AGCGTTCG | 0.0142 |
| CCCCCTCC | -0.121 |
| GTGAGGCA | -0.0727 |
| CTAAGGAA | -0.0429 |
| ACACATGG | 0.0687 |
| ACCATATG | 0.105 |
| TAGCCCCA | -0.0697 |
| CAGAAGAC | -0.0636 |
| CGCGTGCC | -0.0311 |
| AGGTCCAG | -0.121 |
| AAACTCGA | 0.203 |
| CTGCTCGA | -0.167 |
| GCGTTTAC | -0.0566 |
| CGCCGTAA | 0.0117 |
| CTTTGCTA | 0.162 |
| TCCCCTCA | 0.211 |

| Sequence | PBM E-score |
| --- | --- |
| GGAGAAGA | -0.0437 |
| AAGTCCCT | -0.124 |
| GTAATGAA | -0.129 |
| AAACCATT | 0.0969 |
| AGGAGCAG | -0.189 |
| CATTACTC | 0.0508 |
| CCGCATAG | -0.00181 |
| GCTTAAAC | -0.0138 |
| CTCGCCAA | -0.034 |
| ACCATGTA | 0.0456 |
| ATTTGGTG | 0.16 |
| ATCACCGG | -0.0135 |
| ATTCCGTA | -0.0191 |
| CCTGAGTC | -0.193 |
| GAGAACGC | -0.103 |
| ATGTGCCC | -0.16 |
| GTCATTTA | -0.192 |
| CATGGTGC | -0.0606 |
| AGGAATCG | -0.0451 |
| CCGAGCGG | -0.116 |
| AGCCTCAG | -0.123 |
| CTGAATCC | 0.0117 |
| GGGCGGCA | -0.00298 |
| ACTTAGGG | 0.116 |
| CGGTTTGC | 0.0736 |

| Sequence | PBM E-score |
| --- | --- |
| AAAGATTG | 0.0308 |
| GAGTTCAA | -0.0508 |
| CCACATGC | -0.0924 |
| ATTACACA | 0.194 |
| CGTGGTGC | -0.249 |
| ATTGGTGA | 0.0373 |
| GGATGAGA | -0.0151 |
| AGGCGATC | -0.166 |
| AAGATCCC | -0.0527 |
| ACCGCGAT | 0.00413 |
| AGCGACTG | -0.0631 |
| TAAATAGA | -0.0338 |
| ACACAGCA | 0.0338 |
| AAGACTGC | -0.153 |
| GCGGCCGA | -0.00527 |
| CATCGTCC | -0.114 |
| CAGGAGCA | -0.0189 |
| ATTCTGAA | 0.118 |
| CGGTTTGA | 0.0944 |
| ATCACACG | 0.0439 |
| CACCGCGC | -0.037 |
| AAGTTTAG | 0.067 |
| AGGGTTTG | 0.14 |
| ACATAAGA | 0.193 |
| ATTGTCGA | 0.104 |

| Sequence | PBM E-score |
| --- | --- |
| AATGCAGG | -0.119 |
| CACATGTC | -0.133 |
| ACACCTTA | -0.0837 |
| ATGCGCTC | 0.0298 |
| TGATTCCA | 0.0417 |
| ATCACGAC | -0.128 |
| AACAATAG | 0.0913 |
| CTGATCAG | -0.0327 |
| GCACTTGA | -0.14 |
| CGTATCAA | 0.088 |
| AGATTCTC | -0.0258 |
| GACAGACC | -0.0447 |
| CAATTCCG | 0.0165 |
| AACAGACA | 0.16 |
| AGATGCAA | -0.0413 |
| AACAGCAG | 0.0314 |
| ACCAGAGT | -0.114 |
| ATTAAAAC | 0.313 |
| GCGCCAAC | 0.0703 |
| CGCGGGAG | -0.025 |
| TCTTCTCA | 0.019 |
| CCCGAAGC | -0.107 |
| TACTGCCA | -0.183 |
| CACTTATG | 0.00871 |
| GACCCAGA | 0.0219 |

| Sequence | PBM E-score |
| --- | --- |
| AGAGTCCT | -0.22 |
| GATCCTGC | -0.0331 |
| CCGATGAA | 0.173 |
| TAGCCCGA | 0.0463 |
| CTGGTTCC | -0.11 |
| GCCGGCGC | 0.125 |
| CTTTTTTC | 0.139 |
| AGTGTACC | -0.221 |
| AGGTTGGC | -0.253 |
| GTGGCACA | -0.151 |
| CAGGAGCC | -0.208 |
| AGTGCGCA | 0.122 |
| ACTACGAT | -0.0319 |
| ATGCGCCG | -0.15 |
| GCCTGGAC | -0.0287 |
| AAGGTTTC | 0.148 |
| ACTTATCC | -0.016 |
| AGTTGAGG | 0.0958 |
| ACCTGCTA | 0.0607 |
| CGGAACCC | 0.0647 |
| GAGCTTGA | -0.176 |
| ATTTCACG | 0.122 |

From the supplement of paper PMC3334620
